According to paper PMC4336329 (PLoS ONE, 2015):
Screen size: about 310,000 compounds; about 14,000 (4.5%) showed an effect of 50% or more. The effect is printed as a negative number. The list shows a part of the results.

Target: human ether-à-go-go-related gene (hERG) potassium channel (human, UniProt Q12809)
Assay: primary screen, population patch clamp on CHO cells stably expressing hERG
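Further: peak tail current of the secondary pulse compared with the same well before compound.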

Sequence of human ether-à-go-go-related gene (hERG) potassium channel (Q12809 whole entry, looked up): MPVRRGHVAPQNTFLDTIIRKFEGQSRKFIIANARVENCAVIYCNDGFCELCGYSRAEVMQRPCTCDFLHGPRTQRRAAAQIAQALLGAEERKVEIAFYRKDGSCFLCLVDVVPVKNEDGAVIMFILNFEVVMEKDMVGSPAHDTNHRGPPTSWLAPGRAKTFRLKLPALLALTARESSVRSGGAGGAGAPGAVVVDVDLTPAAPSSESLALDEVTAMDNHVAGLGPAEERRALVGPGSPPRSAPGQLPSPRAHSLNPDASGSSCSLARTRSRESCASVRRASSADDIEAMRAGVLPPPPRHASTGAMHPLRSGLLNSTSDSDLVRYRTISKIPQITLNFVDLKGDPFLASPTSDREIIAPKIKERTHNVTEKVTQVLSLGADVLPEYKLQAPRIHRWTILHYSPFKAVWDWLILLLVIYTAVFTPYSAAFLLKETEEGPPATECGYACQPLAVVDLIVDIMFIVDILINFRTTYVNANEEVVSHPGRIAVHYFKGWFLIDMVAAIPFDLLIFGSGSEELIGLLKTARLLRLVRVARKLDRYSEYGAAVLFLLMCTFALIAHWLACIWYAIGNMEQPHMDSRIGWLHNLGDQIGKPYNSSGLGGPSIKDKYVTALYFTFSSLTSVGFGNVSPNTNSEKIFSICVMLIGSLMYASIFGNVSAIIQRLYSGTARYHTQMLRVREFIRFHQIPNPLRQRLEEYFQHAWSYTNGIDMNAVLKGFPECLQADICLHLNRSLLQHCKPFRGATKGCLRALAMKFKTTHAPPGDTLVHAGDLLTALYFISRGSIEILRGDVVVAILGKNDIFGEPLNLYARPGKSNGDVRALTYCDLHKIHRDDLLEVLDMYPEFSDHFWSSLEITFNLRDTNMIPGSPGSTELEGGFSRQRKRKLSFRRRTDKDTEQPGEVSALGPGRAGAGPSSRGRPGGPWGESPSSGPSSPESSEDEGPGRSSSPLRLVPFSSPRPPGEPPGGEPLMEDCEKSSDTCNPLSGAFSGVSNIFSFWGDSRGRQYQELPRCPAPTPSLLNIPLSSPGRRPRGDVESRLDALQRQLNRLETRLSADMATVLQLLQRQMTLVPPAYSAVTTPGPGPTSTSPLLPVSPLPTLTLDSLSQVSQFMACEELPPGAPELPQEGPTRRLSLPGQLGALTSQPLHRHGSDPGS

Row | Compound | hERG current change (%, negative = inhibition) at 10uM [%]
1 | CC(=O)N1CCc2cc(S(=O)(=O)CCC(=O)O)ccc21 | 7.4
2 | Cc1nc(N)c(Br)c(C)c1Br | -9.31
3 | CCOc1ccc(C(C)NC(=S)NCc2ccc(Cl)cc2)cc1 (stereo not shown) | 13.6
4 | CN(CC(=O)Nc1ccc(S(N)(=O)=O)cc1)c1ccccc1 | 4.85
5 | O=S(=O)(Cc1ccccc1)N1CCN(c2ncccn2)CC1 | 11.6
6 | CN(C)c1ccc(CN(C)C2CCCCC2)cc1 | 2.72
7 | Cc1ccc(C)c(C(C)NC(=S)NCc2ccc(F)cc2)c1 (stereo not shown) | 22
8 | CCOC(=O)NC(=O)CSc1nnnn1-c1ccc(C)cc1 | -3.17
9 | O=C(NCCN1CCN(C(=O)NC2CCCCC2)CC1)NC1CCCCC1 | 9.87
10 | FC(F)(F)c1cnc(Sc2ncn[nH]2)c(Cl)c1 | 4.22
11 | CNC(=O)c1c(NC(=O)CCS(=O)(=O)c2ccc(F)cc2)sc(C)c1C | -8.22
12 | Cc1c(CC(=O)N2C[C@H]3C[C@@H](C2)c2cccc(=O)n2C3)c(=O)oc2cc3occ(C(C)(C)C)c3cc12 | -73.4
13 | Cc1nnc(NC(=O)CSc2nccn2C)s1 | 11.8
14 | CNC(=O)c1ccc(Nc2nnc(-c3ccc(O)cc3)c3ccccc23)cc1 | -0.39
15 | O=C(N/N=C1/CCCc2ccccc21)C(c1ccccc1)c1ccccc1 | -6.6
16 | CN(C(=O)CCn1c(=S)oc2ccccc21)c1ccc(F)cc1 | -8.13
17 | CCOc1ccc(-n2c(=O)cc(N3CCN(c4ccc(F)cc4)CC3)[nH]c2=O)cc1 | 9.15
18 | CN(CC(=O)Nc1ccccc1Cl)C(=O)CSc1nncn1C | 5.09
19 | S=C(NC1CCCC1)NN1CCOCC1 | 11.9
20 | Cc1cc(OCCCC(=O)NCc2cccs2)ccc1Cl | 12.6

Row | Compound | hERG current change (%, negative = inhibition) at 10uM [%]
21 | CCCCN(C(=O)Cn1nnc2ccccc21)C(C(=O)NCCOC)c1ccccc1 (stereo not shown) | 8.49
22 | CC(C)(C)CC(=O)NC(=S)NCCc1ccccc1 | -11.2
23 | CC1CN(S(=O)(=O)c2ccc(C(=O)Nc3ccc(S(=O)(=O)Nc4nccs4)cc3)cc2)CC(C)O1 (stereo not shown) | 10.4
24 | CCOC(=O)c1ccc(CSc2nnc(-c3ccncc3)n2N)cc1 | -4.81
25 | O=C(O)C(=O)O.OC(CON=C1c2ccccc2-c2ccccc21)CN1CCNCC1 (stereo not shown) | -25.4
26 | Cc1cc(C)n2[nH]c(=O)c(N=Nc3cccc(Cl)c3)c2n1 | -22
27 | C/C(=N/OC(=O)c1ccc(Br)cc1)c1ccc(C)cc1 | 19
28 | CCOc1ccccc1OCCCCOc1ccccc1F | -8.69
29 | O=S(=O)(ON(c1ccccc1)S(=O)(=O)c1ccccc1)c1ccccc1 | -10.9
30 | Cc1ccccc1N=Nc1ccc(O)c2ncccc12 | 18.9
31 | Cc1cc(C)c(NC(=S)NC(CO)(CO)CO)c(C)c1 | 12.2
32 | CC(Sc1nccn1C)C(=O)Nc1ccc(C(N)=O)cc1 (stereo not shown) | 12
33 | COCc1cc(=O)[nH]c(N2CCN(c3ccccc3OC)CC2)n1 | -3.39
34 | O=C(CSc1nc2c(c(=O)[nH]1)CCC2)Nc1cccc(F)c1 | -1.68
35 | O=C(NCC1CC1)c1onc(CSc2ccncc2)c1C(=O)NCC1CC1 | -11.9
36 | O=C(CSc1nc(O)cc(=O)[nH]1)C1CC1 | 7.82
37 | CC(C)(C)c1nnc2sc(SCC(=O)NCc3ccco3)nn2c1=O | -17
38 | COc1ccccc1NC(=O)c1ccccc1C(=O)Nc1ccccc1OC | -21.6
39 | O=C(COC(=O)COc1ccccc1Cc1ccccc1)Nc1cccnc1Cl | 4.68
40 | Cc1nnc(SCC(=O)NNC(=O)c2ccccc2)n1N | 10.7

Row | Compound | hERG current change (%, negative = inhibition) at 10uM [%]
41 | COc1ccc([C@H]2CC(=O)C=C(c3ccc4ccn(C)c4c3)C2)cc1 | 12.9
42 | Cc1cc(C)c2nc(SCCc3ccccc3)nc(C)c2c1 | -10.6
43 | CCOc1ccccc1NC(=O)N1CCC(NC(=O)c2cccc(C)c2)CC1 | -26.4
44 | CC1CCCN(c2nc3c(c(=O)[nH]c(=O)n3C)n2CCSc2nc3ccccc3o2)C1 (stereo not shown) | -12.6
45 | Cc1ccc([N+](=O)[O-])cc1NC(=O)C(C)N1CCCCC1 (stereo not shown) | 30.2
46 | COc1ccc(NC(=O)CN2C3CCC2CC(O)(c2cccnc2)C3)cc1OC (stereo not shown) | 0.385
47 | CCOC(=O)N1CCN(C(=O)C2CC(c3ccc(F)cc3)=NO2)CC1 (stereo not shown) | -20.6
48 | CCN(c1ccccc1)S(=O)(=O)c1ccc(C(=O)Nc2ncccc2O)cc1 | 3.02
49 | Cc1cccc(OCc2nnc(N)s2)c1C | 14.6
50 | Cc1cc(NC(=O)CCS(=O)(=O)c2nc(-c3ccccc3)cc(C(F)(F)F)n2)no1 | 0.488
51 | CCC(=O)c1cn(CC(=O)NCC2CCCO2)c2ccccc12 (stereo not shown) | 8.11
52 | CC(C)c1ccc(NC(=O)CSc2nc(-c3ccccc3F)nc3nc[nH]c23)cc1 | -3.4
53 | COc1cc2ccccc2cc1C(=O)Nc1ccc(CN2CCOCC2)cc1 | -1.54
54 | Cc1cc(=O)oc2cc(OCC(=O)N3CCCC(C)C3)ccc12 (stereo not shown) | -20.4
55 | CCN(CC)S(=O)(=O)c1ccc(Cl)c(C(=O)Oc2cccc(-c3cnc4ccccc4n3)c2)c1 | 20.3
56 | Cc1cc2c3c(c1)C1(C(=O)N3C(C)(C)CC2C)C(C#N)=C(N)Oc2n[nH]c(C)c21 (stereo not shown) | 6.31
57 | CCC(C)C1N=C(c2ccccc2)c2cc(Cl)ccc2N(CC(=O)NCc2ccco2)C1=O (stereo not shown) | 8.71
58 | O=C(Nc1ccc(N2CCCCC2)cc1)C1CCCN1S(=O)(=O)c1ccc(F)cc1 (stereo not shown) | 8.1
